This is an account of results in the supplement of paper PMC11417369.

± gives the standard deviation of the averaged measurements. The list shows a part of the results.

This test deals with PfAP2-LT AP2 domain (GST-tagged). Put plainly: gcPBM binding intensity (ln(normalized median fluorescence intensity)); higher = stronger DNA binding. The method, boiled down: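 GST-fused DNA-binding domains of P. falciparum, expressed in E. coli, were applied at about 25 μg on average for 1 h to an Agilent 4 × 180k array of primer-extended double-stranded 36-bp intergenic genomic probes and negative controls. Binding intensity is the highest Masliner-normalised natural-log median intensity across replicate spots of either probe orientation, measured with Alexa488 anti-GST antibody and a 488 nm scan.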
As to “TACAGATAAATATACATACATATATATATATATATA [XGTACX_negctrl_site182]”, the “gcPBM binding intensity (ln)” value turned out to be 9.57 ± 0.042.
The value for “ATATTATTTTATTTTTGTACAGATATCTTTAAAAAA [XGTACX_site3734]” was 8.42 ± 0.37; that for “CACGCGCACGAACACACACACACACGCATATAAATA [CACACA_site7103]” was 9.86 ± 0.33; that for “AACATCATCTCTCCACAACAACAAAAAAAAAAATAC [CACACA_negctrl_site311]” was 8.82 ± 0.43.
Turning to “TTATTAAAAATGGTATGTACGCACATAATATATATA [XGTACX_site3230]”, the “gcPBM binding intensity (ln)” value was 8.91 ± 0.47.
For the sequence “AATACATACATACATACATGCATATATATATATATA [TGCATGCA_site462]”, the “gcPBM binding intensity (ln)” value was 9.97 ± 0.34.
The value for “AAAATTATATGTAATTGTACGGAATTATATACGCAA [XGTACX_site2048]” was 8.72 ± 0.41; that for “TCCTGTGGTTATATAACACACATTATTGCTTATAAG [CACACA_site6823]” was 8.9 ± 0.37; that for “TTTTTTAAAAATATTATCATCGTAACAAGAAATCGA [CACACA_negctrl_site1111]” was 8.22 ± 0.37.
The value for “ATGATTTATTATTATACACACAAAAAAAAAAAAGGA [CACACA_site264]” was 8.84 ± 0.42; that for “GAACAAAAAAAAAATTGTACACAATTTTTTAAAATT [XGTACX_site4455]” was 8.54 ± 0.54; that for “AATACATACATATATACATGCATACATATAAATATA [TGCATGCA_site674]” was 9 ± 0.4.
The value for “GCTTATAAGATATGCACACACAACACTTACAAAAAA [CACACA_site817]” was 9.39 ± 0.35; that for “AAACAAAAAAAATAAGCACACATATATATATATATA [CACACA_site8173]” was 9.6 ± 0.57.
Take “ATTTTATGAAATGTTGCACACAAAAAACAACATGTT [CACACA_site8408]”: the “gcPBM binding intensity (ln)” value was found to be 9.06 ± 0.33.
The value for “GAACAACAACAAAAAAAAAAAAAAAAAAAAAAAAAA [CACACA_negctrl_site199]” was 8.12 ± 0.35.
Take “TAAATAAATATATGTACACACACAAATATATACATA [CACACA_site8577]”: the “gcPBM binding intensity (ln)” value turned out to be 9.24 ± 0.29.
The value for “TATATGATATAATATACACACATACATATATATATA [CACACA_site8066]” was 9.27 ± 0.042; that for “CTGAATTTTTATAACTGTACATATTTGATATAAAAA [XGTACX_site183]” was 8.29 ± 0.38.
Then “ATATTTAATACAAATACACACACAAATATATACATA [CACACA_site9248]”, with 9.5 ± 0.23; and “ATGGGAAAAACATTCCGTACATACATACACATATAT [XGTACX_site8263]”, with 8.99 ± 0.41.
Then “ATATTGCTTATTTGATGTACGAATACACTAGTATTA [XGTACX_site4536]”, with 8.88 ± 0.44; and “TATCTGTATATGTGTACACATATTCTTAACTCACGC [CACACA_site4255]”, with 9.18 ± 0.48.
Regarding “ATACTAAATGAACACACACACATATAGATTTATAAC [CACACA_site6200]”, the “gcPBM binding intensity (ln)” value came out at 9.79 ± 0.42.
In the case of “AATATTTTAAAAAAATGTACTTTTAACCCTTATTGG [XGTACX_site3490]”, the “gcPBM binding intensity (ln)” value is 8.45 ± 0.45.
Then “TATAAAATATAAATTTGTACATATAAAATATTTTAT [XGTACX_site7462]”, with 8.43 ± 0.45; and “TTTTTTAAAATATAAAATATGTACAAATATGTTGAA [GTGCAC_negctrl_site379]”, with 8.27 ± 0.47.
The value for “TAATAGTTATAAAATACACACCAGGCATGATAAATG [CACACA_site4335]” was 8.95 ± 0.4; that for “TATATATATATACATACATATAAAGTTACATAAACA [CACACA_negctrl_site432]” was 8.76 ± 0.45; that for “GAACAAACAAAGAAAGAACACACATACACAATATAC [CACACA_site8918]” was 9.6 ± 0.38.
The value for “TAGATTTTTTTACATTGTACATATTTTTTCTTATAG [XGTACX_site293]” was 8.76 ± 0.54; that for “ATATATGGGTAGTATACACACTGTATATTTAGGAAT [CACACA_site7357]” was 9.02 ± 0.47.
With “GTATGAAAAAAATATGCATGCTAAATAATAAATGTT [TGCATGCA_site352]”, the “gcPBM binding intensity (ln)” value turned out to be 8.96 ± 0.4.
Then “ATCATTTTTATAAATTGTACAAATATTTTTTATACA [XGTACX_site7551]”, with 8.54 ± 0.45; and “ATTTCGTAATTTATATCACACACATATATATATAAT [CACACA_site9021]”, with 9.2 ± 0.42.
Take “TTATATAAATATAAGGTGCTGGGGTTTATTACATAT [GTGCAC_site9909]”: the “gcPBM binding intensity (ln)” value was 9.18 ± 0.5.
Turning to “CACCAATTCATATGCACACACATCTGCATATTATAG [CACACA_site6925]”, the “gcPBM binding intensity (ln)” value was 9.39 ± 0.3.
Then “ATATCGCACGTTTGAAGTACATAAAAACGATTAATA [XGTACX_site7684]”, with 8.87 ± 0.38; and “CATATTATTTATATTTGTACACAGCGATATGAAATA [XGTACX_site7717]”, with 8.68 ± 0.35.
The value for “CTTACATAAAATATCACACACATAAAAAAACAATAT [CACACA_site1901]” was 9.3 ± 0.42.
The value for TATATATATATATATGTGCACATATATATGATATTA was 9.61 ± 0.28; that for “GTACATTATATATATACACACATACATAATAAAGAA [CACACA_site5528]” was 9.24 ± 0.32; that for “ATATGCTATTAATTATGTACATATATATATATATAT [XGTACX_site4901]” was 9.26 ± 0.33.
With “GGACTATACAGTTATACACACACATATATATATAAT [CACACA_site7991]”, the “gcPBM binding intensity (ln)” value came out at 9.6 ± 0.4.
